Reference: the supplement of paper PMC9588766
Counter-ions that a name gives are not always drawn. The full ranking holds about 1,900 compounds; the median of “cell viability of compound + 1 nM pemigatinib relative to pemigatinib-only (DMSO) wells” is about 0.95, and the lowest 2% start at about 0.22. Some of the results follow.

test system: PDC-DUC18828; assay: cell viability of compound + 1 nM pemigatinib relative to pemigatinib-only (DMSO) wells (fraction); PDC-DUC18828 is a patient-derived cholangiocarcinoma cell line; higher = less growth inhibition; settings: first compound 1 µM; pemigatinib concentration 1 nM; 72 h
Description: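 Selleck Bioactive library screen in the patient-derived FGFR2 fusion-positive ICC cell line PDC-DUC18828 (500 cells/well). Each compound was tested at 1 uM with 1 nM pemigatinib, in triplicate, for 72 h. Viability was read by CellTiter-Glo and normalised to plate DMSO controls. Value is the paper's averaged normalised viability.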

Compound | cell viability
OCc1c[nH]c2ccccc12 [Indole-3-carbinol] + CCN1C(=O)N(c2c(F)c(OC)cc(OC)c2F)Cc2cnc3[nH]c(CN4CCOCC4)cc3c21 [pemigatinib] | 0.977
N#CCNC(=O)c1ccc(-c2ccnc(Nc3ccc(N4CCOCC4)cc3)n2)cc1 + CCN1C(=O)N(c2c(F)c(OC)cc(OC)c2F)Cc2cnc3[nH]c(CN4CCOCC4)cc3c21 [pemigatinib] | 0.903
CS(=O)(=O)OCCCCOS(C)(=O)=O [Busulfan] + CCN1C(=O)N(c2c(F)c(OC)cc(OC)c2F)Cc2cnc3[nH]c(CN4CCOCC4)cc3c21 [pemigatinib] | 0.982
O=C(/C=C/c1ccc(O)cc1)c1ccc(O)cc1O [Isoliquiritigenin] + CCN1C(=O)N(c2c(F)c(OC)cc(OC)c2F)Cc2cnc3[nH]c(CN4CCOCC4)cc3c21 [pemigatinib] | 0.872
N#Cc1ccc(-c2csc(NN=C3CCCC3)n2)cc1 [Remodelin] + CCN1C(=O)N(c2c(F)c(OC)cc(OC)c2F)Cc2cnc3[nH]c(CN4CCOCC4)cc3c21 [pemigatinib] | 0.986
COc1cccc2c1C(=O)c1c(O)c3c(c(O)c1C2=O)C[C@@](O)(C(C)=O)C[C@@H]3O[C@H]1C[C@H](N)[C@H](O)[C@H](C)O1 [Daunorubicin HCl] + CCN1C(=O)N(c2c(F)c(OC)cc(OC)c2F)Cc2cnc3[nH]c(CN4CCOCC4)cc3c21 [pemigatinib] | 0.0984
CNC(=O)c1ccccc1Nc1cc(Nc2ccc(N3CCOCC3)cc2OC)ncc1C(F)(F)F + CCN1C(=O)N(c2c(F)c(OC)cc(OC)c2F)Cc2cnc3[nH]c(CN4CCOCC4)cc3c21 [pemigatinib] | 0.758
CNC(=O)c1cc(Oc2ccc(NC(=O)Nc3ccc(Cl)c(C(F)(F)F)c3)cc2)ccn1 [Sorafenib Tosylate] + CCN1C(=O)N(c2c(F)c(OC)cc(OC)c2F)Cc2cnc3[nH]c(CN4CCOCC4)cc3c21 [pemigatinib] | 1.03
CNC(=O)c1cc(Oc2ccc(NC(=O)Nc3ccc(Cl)c(C(F)(F)F)c3)cc2)ccn1 [Sorafenib] + CCN1C(=O)N(c2c(F)c(OC)cc(OC)c2F)Cc2cnc3[nH]c(CN4CCOCC4)cc3c21 [pemigatinib] | 1.05
CC/C(=C(\c1ccc(O)cc1)c1ccc(OCCNC)cc1)c1ccccc1 [Endoxifen HCl] + CCN1C(=O)N(c2c(F)c(OC)cc(OC)c2F)Cc2cnc3[nH]c(CN4CCOCC4)cc3c21 [pemigatinib] | 0.965
Cc1ccc(S(=O)(=O)Cc2nc(-c3ccc(C(=O)NCc4cccnc4)cc3)oc2C)cc1 + CCN1C(=O)N(c2c(F)c(OC)cc(OC)c2F)Cc2cnc3[nH]c(CN4CCOCC4)cc3c21 [pemigatinib] | 0.413
C=C1CC[C@@H]2[C@](C)(CO)[C@H](O)CC[C@@]2(C)[C@@H]1C/C=C1/C(=O)OC[C@H]1O [Andrographolide] + CCN1C(=O)N(c2c(F)c(OC)cc(OC)c2F)Cc2cnc3[nH]c(CN4CCOCC4)cc3c21 [pemigatinib] | 0.956
Cc1cn([C@H]2C=C[C@@H](CO)O2)c(=O)[nH]c1=O [Stavudine (d4T)] + CCN1C(=O)N(c2c(F)c(OC)cc(OC)c2F)Cc2cnc3[nH]c(CN4CCOCC4)cc3c21 [pemigatinib] | 0.972
CC(=O)NS(=O)(=O)c1ccc(N)cc1 [Sulfacetamide Sodium] + CCN1C(=O)N(c2c(F)c(OC)cc(OC)c2F)Cc2cnc3[nH]c(CN4CCOCC4)cc3c21 [pemigatinib] | 0.983
C=CC1=C(C(=O)O)N2C(=O)[C@@H](NC(=O)/C(=N\O)c3csc(N)n3)[C@H]2SC1 [Cefdinir] + CCN1C(=O)N(c2c(F)c(OC)cc(OC)c2F)Cc2cnc3[nH]c(CN4CCOCC4)cc3c21 [pemigatinib] | 1.05
CN1C(CCl)Nc2cc(Cl)c(S(N)(=O)=O)cc2S1(=O)=O (centres undefined) [Methyclothiazide] + CCN1C(=O)N(c2c(F)c(OC)cc(OC)c2F)Cc2cnc3[nH]c(CN4CCOCC4)cc3c21 [pemigatinib] | 0.897
OCc1ccccc1O[C@@H]1O[C@H](CO)[C@@H](O)[C@H](O)[C@H]1O [Salicin] + CCN1C(=O)N(c2c(F)c(OC)cc(OC)c2F)Cc2cnc3[nH]c(CN4CCOCC4)cc3c21 [pemigatinib] | 0.976
CC(C=CC(=O)NO)=CC(C)C(=O)c1ccc(N(C)C)cc1 (centres undefined) [Trichostatin A (TSA)] + CCN1C(=O)N(c2c(F)c(OC)cc(OC)c2F)Cc2cnc3[nH]c(CN4CCOCC4)cc3c21 [pemigatinib] | 0.0931
c1ccc2c(CC3=NCCN3)cccc2c1 [Naphazoline HCl] + CCN1C(=O)N(c2c(F)c(OC)cc(OC)c2F)Cc2cnc3[nH]c(CN4CCOCC4)cc3c21 [pemigatinib] | 0.947
CC(=O)OCC(=O)[C@@]12OC(C)(C)O[C@@H]1C[C@H]1[C@@H]3C[C@H](F)C4=CC(=O)C=C[C@]4(C)[C@@]3(F)[C@@H](O)C[C@@]12C [Fluocinonide] + CCN1C(=O)N(c2c(F)c(OC)cc(OC)c2F)Cc2cnc3[nH]c(CN4CCOCC4)cc3c21 [pemigatinib] | 0.914
CCN(CC)CC(=O)Nc1c(C)cccc1C [Lidocaine] + CCN1C(=O)N(c2c(F)c(OC)cc(OC)c2F)Cc2cnc3[nH]c(CN4CCOCC4)cc3c21 [pemigatinib] | 0.994
CC(=O)c1cc2c(o1)C(=O)c1ccccc1C2=O [Napabucasin] + CCN1C(=O)N(c2c(F)c(OC)cc(OC)c2F)Cc2cnc3[nH]c(CN4CCOCC4)cc3c21 [pemigatinib] | 0.011
CN(c1ccccc1CNc1nc(Nc2ccc3c(c2)CC(=O)N3)ncc1C(F)(F)F)S(C)(=O)=O + CCN1C(=O)N(c2c(F)c(OC)cc(OC)c2F)Cc2cnc3[nH]c(CN4CCOCC4)cc3c21 [pemigatinib] | 0.826
CCCCN(Cc1ccc(C(=O)NO)cc1)C(=O)Nc1ccccc1 [Nexturastat A] + CCN1C(=O)N(c2c(F)c(OC)cc(OC)c2F)Cc2cnc3[nH]c(CN4CCOCC4)cc3c21 [pemigatinib] | 0.999
